According to PubChem BioAssay AID686978 (National Center for Advancing Translational Sciences (NCATS), 2013):
The whole screen tested about 420,000 compounds, of which about 64,000 (15%) were called active. Inconclusive means that the source gave no clear call. Such entries were picked first, then a sample of the others. The call rests on the fitted dose curve; in most records, active means well fitted inhibition curve with a large enough effect; inconclusive means small, poorly fitted or top-dose-only effect; inactive means flat fitted curve, though single readings scatter. No potency is given beside an inconclusive call; the fits are too rough.

Assay: qHTS for Inhibitors of human tyrosyl-DNA phosphodiesterase 1 (TDP1): qHTS in cells in absence of CPT; further: nearly all actives have a fitted effect of over 55% in size
Conditions: DT40 Tdp1-/- hTDP1 cells, no CPT, ATP luminescence, 48 h; activity change, negative = growth inhibition: at 46.2 µM (top of the series)
Summary of the method: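 A cellular qHTS used chicken DT40 cells lacking endogenous Tdp1 but carrying stably transfected human TDP1. Compounds were applied without camptothecin, and cell growth kinetics were judged by ATP-dependent luminescence after ≥48 hr.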
On the % scale 0 is the no-effect control and ±100 the full control effect; potency means the concentration at half of the fitted maximal effect; tags describe the fitted curve by direction and shape.

Q: For `O=C(Nc1cccnc1Cl)c1cc([N+](=O)[O-])ccc1Cl`, which Potency is on record?
A: The Potency was inconclusive [inhibitor, single point].

Q: Which Potency does the source give for `COC(=O)c1sc2c(c1C)c(=O)n(-c1ccccc1)c(=O)n2CC(=O)Nc1cccc(C)c1` here?
A: The Potency was inconclusive [inhibitor, single point].

Q: With `CC1(C)CC(=O)c2sc(NC(=O)C(C)(C)C)nc2C1` as the compound, how does the Potency read?
A: Its Potency is inconclusive [inhibitor, partial curve, poor fit].

Q: Which Potency does the source give for `CN(CCc1ccccc1)c1ccc([N+](=O)[O-])cn1` here?
A: The Potency was “inactive”.

Q: With `O=[N+]([O-])c1ccc(OCC(O)CN(C2CCCCC2)C2CCCCC2)cc1` (stereo not drawn) as the compound, how does the Potency read?
A: Its Potency is inconclusive [inhibitor, single point].

Q: Which Potency does the source give for `CCCN1C(=O)C(O)(CC(=O)c2ccc(C(C)C)cc2)c2ccccc21` (stereo not drawn) here?
A: Its Potency is inconclusive [inhibitor, single point].

Q: For `Clc1ccc(OCc2cn3cccnc3n2)c2ncccc12`, which Potency is on record?
A: Its Potency is “inactive”.

Q: Which Potency does the source give for `CN1CCN(/N=C/c2c3ccccc3c(Cl)c3ccccc23)CC1` here?
A: The Potency was inconclusive [inhibitor, single point].

Q: For `COc1ccc(Nc2nc(C)cc(C)c2C#N)cc1OC`, which Potency is on record?
A: Its Potency is “inactive”.

Q: Which Potency does the source give for `COc1ccc(-c2csc(Nc3cccnc3)n2)cc1OC` here?
A: The Potency was inconclusive [inhibitor, single point].

Q: Which Potency does the source give for `C(=N\N(c1ccccc1)c1ccccc1)/c1ccc(N2CCOCC2)s1` here?
A: The Potency was inconclusive [inhibitor, single point].

Q: For `Cc1c(C(=O)N2CCN(c3ccccc3F)CC2)sc2nc(-c3ccccc3)cn12`, which Potency is on record?
A: The Potency was inconclusive [inhibitor, single point].

Q: Which Potency does the source give for `Cc1ccc(NC(=O)CNc2ccc(OC(C)C)cc2)c(C)c1` here?
A: Its Potency is inconclusive [inhibitor, single point].

Q: For `Cc1ccc(Cl)cc1N1CCN(S(=O)(=O)c2c(C)[nH]c(C)c2C(=O)N2CCCC2)CC1`, which Potency is on record?
A: Its Potency is inconclusive [inhibitor, single point].

Q: With `COc1cccc(/C=C/C(=O)N2CCN(S(=O)(=O)c3ccccc3)CC2)c1` as the compound, how does the Potency read?
A: The Potency was active: 20.6 µM.

Q: For `O=c1c2ccccc2cnn1Cc1ccc(Cl)c(Cl)c1`, which Potency is on record?
A: Its Potency is inconclusive [inhibitor, partial curve].

Q: For `O=C1NC(Nc2nccs2)(C(F)(F)F)C(=O)N1CCc1ccccc1` (stereo not drawn), which Potency is on record?
A: The Potency was “inactive”.

Q: For `CCCCNc1nc2c(S(=O)(=O)c3ccccc3)nnn2c2ccccc12`, which Potency is on record?
A: Its Potency is “inactive”.

Q: For `CSCCC(C(=O)NC1CCCC1)n1c(-c2ccccn2)nc2ccccc21` (stereo not drawn), which Potency is on record?
A: The Potency was inconclusive [inhibitor, single point].

Q: Which Potency does the source give for `CCOC(=O)c1c(NC(=O)CSc2nnc(C)o2)sc(C)c1C` here?
A: The Potency was “inactive”.

Q: With `Cc1cc(C)n2ncc(C(=O)NCc3ccc(Cl)cc3)c2n1` as the compound, how does the Potency read?
A: Its Potency is “inactive”.

Q: With `CN(CCOc1ccc(Cl)cc1)C(=O)C1CCN(C(=O)c2ccc(Cl)cc2)CC1` as the compound, how does the Potency read?
A: The Potency was inconclusive [inhibitor, partial curve].

Q: Which Potency does the source give for `COc1cccc(NC(=O)CN(C)C(=O)COc2ccccc2Cc2ccccc2)c1` here?
A: Its Potency is active: 29.1 µM.

Q: With `CC(=O)Nc1ccc(NC(=O)COc2ccc(S(=O)(=O)N3CCCC3)cc2C)cc1` as the compound, how does the Potency read?
A: The Potency was inconclusive [inhibitor, single point].

Q: With `Cc1ccc(S(=O)(=O)N2C[C@H]3[C@H]4C(=O)N(c5ccccc5)C(=O)[C@H]4C[C@H](OC(=O)NCc4ccccc4F)[C@@]3(O)C2)cc1` as the compound, how does the Potency read?
A: The Potency was “inactive”.

Q: With `Cn1c(N)c(C(=O)COC(=O)COc2ccc(Cl)cc2Cl)c(=O)n(C)c1=O` as the compound, how does the Potency read?
A: Its Potency is “inactive”.

Q: Which activity change, negative = growth inhibition does the source give for `Cc1ccc(C(=O)N/N=C\c2cc3c(cc2Br)OCO3)s1` here?
A: Its activity change, negative = growth inhibition is inconclusive: -34% [inhibitor].

Q: With `O=C(Nc1ccc2nc(-c3ccco3)[nH]c2c1)c1ccco1` as the compound, how does the Potency read?
A: Its Potency is inconclusive [inhibitor, partial curve].

Q: Which Potency does the source give for `Cc1ccc(Cl)cc1N1CCN(C(=O)Cn2ncn3cccc3c2=O)CC1` here?
A: The Potency was inconclusive [inhibitor, single point].

Q: For `COc1cc(CCC(=O)Nc2cnc3ccccc3c2)cc(OC)c1OC`, which Potency is on record?
A: Its Potency is inconclusive [inhibitor, single point].

Q: Which Potency does the source give for `CCNC(=S)Nc1ccc(C)c(Cl)c1` here?
A: Its Potency is “inactive”.

Q: For `CCOC(=O)N1CCC(NC(=O)C(Cc2ccccc2)NC(=O)c2ccco2)CC1` (stereo not drawn), which Potency is on record?
A: The Potency was “inactive”.

Q: For `COC(=O)c1cccc(NC(=O)CCNC(=O)c2ccc([N+](=O)[O-])cc2)c1`, which Potency is on record?
A: Its Potency is “inactive”.

Q: With `CCc1nc2cc(C(=O)N(C)C3CCOC3)cc(NC(=O)c3ccccc3OC)c2n1C` (stereo not drawn) as the compound, how does the Potency read?
A: The Potency was “inactive”.

Q: With `CN1CCN(Cc2c(O)ccc3cc(-c4ccc(Cl)cc4)c(=O)oc23)CC1` as the compound, how does the Potency read?
A: The Potency was inconclusive [inhibitor, single point].

Q: Which Potency does the source give for `CC(NS(=O)(=O)c1ccc(F)cc1)C(=O)Nc1ccc2c(c1)OCCO2` (stereo not drawn) here?
A: The Potency was “inactive”.

Q: With `N#CCC(=O)Nc1ccc(C(=O)OCC(=O)c2ccc3c(c2)OCO3)cc1` as the compound, how does the Potency read?
A: The Potency was “inactive”.

Q: Which Potency does the source give for `COc1ccc(N(C(=O)c2ccc(Cl)cc2)C2=CC3CCC(C2)N3C)cc1` (stereo not drawn) here?
A: The Potency was “inactive”.

Q: For `O=C(NCc1ccc(F)cc1)c1cc(-c2ccncc2)nc2ccccc12`, which Potency is on record?
A: Its Potency is inconclusive [inhibitor, single point].

Q: With `COc1cc(CNS(=O)(=O)c2ccc3c(c2)CC(C)N3C(C)=O)cc(OC)c1OC` (stereo not drawn) as the compound, how does the Potency read?
A: The Potency was inconclusive [inhibitor, partial curve].

Q: Which Potency does the source give for `CCN(CC)CCCC(C)Nc1ccnc2cc(Cl)ccc12` (stereo not drawn) here?
A: Its Potency is active: 0.794 µM.

Q: For `COc1cccc(CC(=O)Nc2ccc(-c3nc4ccccc4s3)cc2Cl)c1`, which Potency is on record?
A: Its Potency is inconclusive [inhibitor, single point].

Q: With `CCOc1cc(CNC(=O)C2CCN(c3nc4ccccc4[nH]3)CC2)cc(OCC)c1OCC` as the compound, how does the Potency read?
A: Its Potency is active: 16.4 µM.

Q: Which Potency does the source give for `COc1ccc(N2CCN(C(=O)C3Cc4ccccc4N3C(C)=O)CC2)cc1` (stereo not drawn) here?
A: The Potency was “inactive”.

Q: With `CCOC(=O)C1=C(O)C(=O)NC(c2ccccc2)=C(OC2CCCCC2)C1` as the compound, how does the Potency read?
A: Its Potency is active: 23.1 µM.

Q: With `COc1cccc(CNC(=O)c2c(C)oc3ncnc(N4CCOCC4)c23)c1` as the compound, how does the Potency read?
A: The Potency was “inactive”.

Q: With `COc1ccc(-c2csc(NC(=O)c3cccc(S(=O)(=O)N4CCN(C)CC4)c3)n2)cc1` as the compound, how does the Potency read?
A: The Potency was inconclusive [inhibitor, partial curve].

Q: Which Potency does the source give for `CC(C)(C)c1cccc(C2(O)C(=O)c3ccccc3C2=O)c1O` here?
A: The Potency was active: 9.2 µM.

Q: For `Cn1c(=O)cc(SCC(=O)NCCC2=CCCCC2)c2ccc(Cl)cc21`, which Potency is on record?
A: Its Potency is “inactive”.

Q: Which Potency does the source give for `CCOC(=O)CSC1=NC(=O)CS1` here?
A: The Potency was inconclusive [inhibitor, partial curve].

Q: For `COc1ccc(Cl)cc1NC(=O)c1cc(-c2cc(C)ccc2O)n[nH]1`, which Potency is on record?
A: Its Potency is inconclusive [inhibitor, partial curve, poor fit].

Q: For `Cc1c(C)c2cc3c(c(C)c2oc1=O)OCN(CCc1ccccc1)C3`, which Potency is on record?
A: The Potency was inconclusive [inhibitor, single point].

Q: Which Potency does the source give for `Cc1ccc(Cc2c(-c3ccc(F)cc3)nc3cc(C)ccn23)cc1` here?
A: The Potency was active: 16.4 µM.

Q: For `CCN(CC)CC(=O)Nc1ccccc1SCC(=O)Nc1ccsc1C(=O)OC`, which Potency is on record?
A: Its Potency is inconclusive [inhibitor, single point].

Q: With `Cc1[nH]n(-c2ccccc2)c(=O)c1N=Nc1ccccc1C(=O)N1CCOCC1` as the compound, how does the Potency read?
A: The Potency was inconclusive [inhibitor, single point].

Q: For `Cc1cc2c(cc1C)-n1nnnc1C(N(Cc1ccccc1)Cc1ccccc1)C(=O)N2` (stereo not drawn), which Potency is on record?
A: The Potency was active: 20.6 µM.

Q: Which Potency does the source give for `COC(=O)C1CCN(C(=O)COC(=O)CCc2nc3ccccc3c(=O)[nH]2)CC1` here?
A: Its Potency is “inactive”.

Q: With `CC(C)CNC(=O)COC(=O)c1ccc(F)cc1Cl` as the compound, how does the Potency read?
A: Its Potency is “inactive”.

Q: Which Potency does the source give for `Cc1ccc2nsnc2c1NC(=O)c1ccc(-c2cc(Cl)ccc2Cl)o1` here?
A: Its Potency is inconclusive [inhibitor, single point].

Q: Which Potency does the source give for `Cc1cc2nc(C3CCCCC3)c(Cc3ccsc3)n2c(C)c1Br` here?
A: The Potency was inconclusive [inhibitor, single point].

Q: With `O=C1CN(N=Cc2ccco2)C(=O)N1` as the compound, how does the Potency read?
A: The Potency was “inactive”.

Q: For `Cc1csc2nc(O)c(C(=O)NC3CCCCC3)c(=O)n12`, which Potency is on record?
A: The Potency was inconclusive [inhibitor, single point].

Q: Which Potency does the source give for `CS(=O)(=O)Nc1cccc(-c2nc(NCCN3CCOCC3)c3ccccc3n2)c1` here?
A: Its Potency is inconclusive [inhibitor, single point].

Q: With `CSc1sc(C)cc1C1C(C#N)=C(N)N(c2cccnc2)C2=C1C(=O)CCC2` (stereo not drawn) as the compound, how does the Potency read?
A: The Potency was active: 11.6 µM.

Q: With `O=C(C1=C[C@H](c2csc3ccccc23)C[C@H](OCCCCO)O1)N1CCN(Cc2ccc3c(c2)OCO3)CC1` as the compound, how does the Potency read?
A: Its Potency is inconclusive [inhibitor, single point].

Q: For `CCOc1ccc(NC(=O)COC(=O)c2ccc3c(c2)C(=O)N(CCc2ccccc2)C3=O)cc1`, which Potency is on record?
A: The Potency was inconclusive [inhibitor, single point].

Q: For `CC(=O)Oc1ccc(/C=c2\sc3ncnn3c2=O)cc1`, which Potency is on record?
A: The Potency was inconclusive [inhibitor, single point].

Q: For `Cc1c(Cl)cccc1NC(=O)CSc1ccc(-c2ccccn2)nn1`, which Potency is on record?
A: The Potency was active: 23.1 µM.

Q: For `N#CC12CCCCC1CC1CCCCC1(C#N)N2Cc1cccnc1` (stereo not drawn), which Potency is on record?
A: The Potency was inconclusive [inhibitor, single point].

Q: With `CCN1CCN(C(=S)Nc2ccc3nc(N4CCN(CC)CC4)cc(C)c3c2)CC1` as the compound, how does the Potency read?
A: The Potency was inconclusive [inhibitor, single point].

Q: With `N#Cc1ccc(OCC(=O)Nc2ccncc2)cc1` as the compound, how does the Potency read?
A: Its Potency is inconclusive [inhibitor, partial curve].

Q: For `CCn1c(CNS(=O)(=O)c2ccc(Br)cc2)n[nH]c1=S`, which Potency is on record?
A: The Potency was “inactive”.

Q: For `Cn1ccnc1Sc1ccc(C=O)cc1[N+](=O)[O-]`, which Potency is on record?
A: The Potency was inconclusive [inhibitor, single point].
